Source: the supplement of paper PMC3334620
Whole data set: some 33,000 sequences, median “E-score (-0.5 to 0.5)” near -0.01, cut for the highest 2% near 0.26. Some of the results follow.

biological target: Ste12 (UniProt P13574); test: PBM E-score (8-mer binding enrichment) (E-score (-0.5 to 0.5)); higher = stronger / more preferred TF binding; most listed sequences are background and not binding sites; conditions: protein concentration: 200 nM; construct: GST-DNA-binding domain
Procedure: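 Universal 'all 10-mer' protein binding microarrays (Agilent AMADID 015681) probed with GST-tagged S. cerevisiae TFs (full-length or DBD) made by in vitro transcription/translation (PURExpress), about 100-200 nM. Bound TF was detected with fluorescent anti-GST. Each ungapped 8-mer (which stands for itself and its reverse complement) is scored by the PBM enrichment score (E-score), a modified Wilcoxon-Mann-Whitney statistic from -0.5 to +0.5, computed with the Universal PBM Analysis Suite. Scale: above 0.35 generally sequence-specific binding.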

Row | Sequence | PBM E-score
1 | GGTCATAC | -0.122
2 | GCCCCTCA | 0.0515
3 | CTGGAGTA | 0.0818
4 | CTGTGCGA | -0.0121
5 | AAACAGCA | 0.148
6 | AACAAAGA | 0.166
7 | CTAGACCC | -0.1
8 | TGTTTCAA | 0.484
9 | ATTTCCGA | 0.2
10 | GCAATATA | 0.149
11 | AAGTCTGC | -0.0539
12 | AAAGCGCG | -0.167
13 | ATCCCGGC | 0.0289
14 | CTATCGGA | -0.0218
15 | AAGCACAC | -0.175
16 | CTAATCCC | -0.0288
17 | CAGGCTGG | -0.0209
18 | AGACCTTG | -0.0557
19 | CGATCTAG | -0.0912
20 | ACTCCGAT | -0.124
21 | ATGGGCTC | -0.0877
22 | ACTAATAA | 0.0582
23 | CGCGTACG | 0.0078
24 | AAACCTCC | -0.0187
25 | AGTTCTGC | -0.15

Row | Sequence | PBM E-score
26 | ACGCCTAA | 0.0463
27 | ACCCCCAA | -0.153
28 | AGACTTCG | -0.151
29 | GCTACGGA | -0.12
30 | CAACACGC | -0.247
31 | CGCCCATC | -0.0222
32 | CGTGAGTC | -0.333
33 | CGCCCATA | 0.0427
34 | TAGTCAGA | -0.153
35 | GCCGTGTA | -0.066
36 | GGTGTGAC | 0.0514
37 | CAACACTC | -0.0395
38 | ATTGATAC | 0.255
39 | CACATAAA | 0.115
40 | CCATGGGC | -0.092
41 | CATTCTCG | 0.0187
42 | ACGTCATC | -0.243
43 | GCCGACCC | -0.215
44 | ACTGTTGC | -0.00433
45 | GAGTCAAA | -0.0609
46 | AGCTAAGA | 0.0238
47 | CAGAGCCC | -0.129
48 | CCGTGGGA | -0.179
49 | CCTACCTA | -0.0846
50 | AAAGCCGA | -0.0348

Row | Sequence | PBM E-score
51 | GGCGGTCA | -0.138
52 | TAGTTAAA | 0.133
53 | CATGATCC | 0.198
54 | GCGCCGAA | 0.011
55 | ACCCAGCC | -0.185
56 | AATTGCAG | 0.0243
57 | ACGGCACG | -0.215
58 | CGTATGTA | -0.0515
59 | TACTCACA | 0.00428
60 | GAGGGTCC | -0.093
61 | AACTCATG | 0.129
62 | CCTTGACC | -0.137
63 | GGCGAGAA | 0.0222
64 | AGTCCGTG | -0.204
65 | CTGAACTA | -0.0292
66 | CGTCGTAG | 0.00142
67 | CGAGCGAA | 0.0454
68 | TTGCCCAA | -0.0393
69 | GTCGAGAC | 0.0464
70 | GAAATGTA | 0.176
71 | CGTCTGCA | -0.113
72 | CGAGTGAA | 0.0152
73 | CGCTCAGC | -0.0662
74 | CCACGTCA | -0.182
75 | GATCGTGA | -0.113

Row | Sequence | PBM E-score
76 | CAGATACG | -0.00918
77 | AAACGCCT | 0.109
78 | AGATATGA | 0.141
79 | AAAAAGTT | 0.214
80 | GGACATCA | 0.0203
81 | AGATGTTA | -0.0366
82 | TGAATTCA | 0.0662
83 | AGGGTCAC | -0.274
84 | CCAATCCG | 0.281
85 | GAGGGTTA | -0.06
86 | TAAATGTA | 0.13
87 | AGCAAATC | 0.0689
88 | GGAGAGGA | -0.252
89 | AATGTAAC | 0.187
90 | CCCCGCAC | 0.0613
91 | TGACCGCA | 0.0567
92 | CAGAATAC | 0.0945
93 | AAATCTCA | 0.155
94 | GTCTGAGA | 0.0877
95 | GACTTCCA | -0.155
96 | CATCTCAA | 0.0216
97 | CTCGAAGA | -0.138
98 | ATCTAGAC | -0.0851
99 | ACAGGAGG | -0.183
100 | GCGACGGA | -0.0402

Row | Sequence | PBM E-score
101 | ATAGAGCC | -0.0936
102 | AGATATAC | -0.0578
103 | AATGGAGG | -0.0279
104 | CTGCGAAC | -0.101
105 | AAGGACAG | -0.0445
106 | GTTAGGTA | 0.107
107 | ATATCGTA | 0.122
108 | ATCCGCAG | 0.0339
109 | CGCTATAG | -0.135
110 | GCACGTAA | -0.128
111 | GTCTTCCA | -0.122
112 | ACATAATG | 0.192
113 | ATAATTAC | 0.131
114 | ACGATAAT | 0.149
115 | GTCTTCAC | -0.195
116 | GGGGCCTA | -0.135
117 | CTATCAAG | 0.0393
118 | GTAGTAAA | 0.0578
119 | ACAACTAC | 0.116
120 | AGAAACGC | -0.0309
121 | ATGTCCGG | -0.0692
122 | ACCGGCTA | -0.119
123 | GGAAGCGA | -0.0821
124 | GCTTGACC | -0.172
125 | AAGGATAA | -0.00803

Row | Sequence | PBM E-score
126 | AAAGGAGA | 0.0107
127 | ATATTAGA | 0.0159
128 | GTGTTAAA | 0.0458
129 | CCATGCCG | -0.0654
130 | AAAGACTC | -0.162
131 | CCAAGGTA | -0.0647
132 | GGCAGGTA | -0.224
133 | ATCCGAAT | 0.192
134 | CTGTGATA | -0.00798
135 | CCGGAACG | 0.0336
136 | AAGGATCT | -0.0695
137 | AGCAGGAA | -0.194
138 | ATAGACTG | -0.155
139 | CGAAACTC | 0.121
140 | GAATCATC | 0.112
141 | CATCTGAA | 0.2
142 | AGTCAGGC | 0.154
143 | GCAAGAGA | -0.175
144 | GGCGGTTA | -0.022
145 | GCTCGTAC | -0.0219
146 | ACCGATTC | 0.0153
147 | TCGAACCA | 0.166
148 | CGTCGTCA | -0.11
149 | CTATCAGA | 0.185
150 | ACGCGCGC | 0.122

Row | Sequence | PBM E-score
151 | AAACCCCA | 0.103
152 | AGCATTAA | 0.0565
153 | CTGTGGTC | -0.223
154 | ACGACCAG | -0.127
155 | TGTATTAA | 0.256
156 | AATACATG | 0.0375
157 | CGATATTC | 0.0243
158 | ACCTCTAA | 0.0525
159 | AGGCTGGG | -0.125
160 | GGTCCCGA | 0.0669
161 | CGCGCTAC | 0.00148
162 | GCCGGATA | 0.027
163 | GGGTTTCA | 0.435
164 | TGTCAACA | -0.079
165 | ATAGCCTC | -0.00677
166 | AAACTTGG | 0.185
167 | ACTCGGTG | -0.152
168 | ACACGGAG | 0.00989
169 | CTCTTTCC | 0.00615
170 | CCTACTGA | 0.121
171 | ATGTAACC | 0.143
172 | CAGACAAC | -0.0294
173 | GTGGACAA | 0.0673
174 | CGAGTGTC | -0.157
175 | AAGGGTCC | -0.131

Row | Sequence | PBM E-score
176 | CTATTACA | 0.181
177 | GGGTCGGA | 0.0687
178 | ACTGGTGG | -0.107
179 | GAACCTCA | -0.136
180 | CGATCGCC | 0.168
181 | CCAGCTAC | -0.091
182 | GAAGTACA | -0.186
183 | AAAGGAGC | -0.00444
184 | CACGCTAC | -0.124
185 | TAAGCCCA | 0.17
186 | AACGTCCC | -0.0827
187 | AAGACTCC | -0.26
188 | ACTAGCCA | -0.102
189 | CGGGTGTC | -0.0974
190 | CAGCTTTA | 0.131
191 | AGCGCCTA | -0.00958
192 | CACCTGAC | 0.13
193 | ATAAGCTG | 0.00187
194 | ATTCGGGG | 0.163
195 | CGGCTCCC | -0.133
196 | CGCGCTTC | 0.161
197 | GCCAAGAA | 0.0608
198 | TCTCAAAA | 0.275
199 | CAAGTGGC | 0.0152
200 | AACCATAT | 0.13

Row | Sequence | PBM E-score
201 | CGGAGCGA | 0.135
202 | GGTTAGGA | -0.0563
203 | AACAGCTT | -0.00657
204 | GGAGTAAA | 0.0636
205 | ATCGCGCC | 0.18
206 | GGTGCGGA | 0.0146
207 | AATGATGT | 0.0856
208 | GAAGCCTC | -0.191
209 | TGAGTCCA | -0.131
210 | AGTTCCGG | -0.0125
211 | AACTACAA | 0.127
212 | GCCTTACC | -0.25
213 | GCACCGTA | -0.137
214 | CTAGTATA | 0.0544
215 | AGGGTACT | -0.141
216 | ATCCAGCG | -0.151
217 | CGCACAAA | 0.00895
218 | ACGAACCT | -0.00746
219 | ATTCGGAA | 0.125
